Results as given in PubChem BioAssay (NCI).
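Cells were grown in 96-well plates and exposed to each compound for 48 hours at five concentrations; endpoints were interpolated linearly between bracketing concentrations, or set to the highest concentration if not reached. At the GI50, growth is halved.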 Some entries of the source have several records that differ or are many. This list holds those alone. There may be further records. A record mostly stands for its own series of concentrations, which the source does not state; some values may only mark the edge of a range.

Tested on: BT-549 breast
Experiment: inhibition of tumour cell growth, NCI panel, 48 h

## COc1cc(O)c2c(c1)/C=C/C[C@H](O)[C@H](O)C(=O)/C=C\C[C@H](C)OC2=O
  GI50: 256 nM and 2.62 µM
